In all, about 48,000 compounds went through this assay and about 450 (0.94%) were called active. Roughly 19% stayed inconclusive and do not appear here. Calls follow the shape of the dose curve; as a rule, active = well fitted inhibition curve with a large enough effect; inconclusive = small, poorly fitted or top-dose-only effect; inactive = no such curve, though single readings can be large or run the other way. This is one part of the list.

This assay can be described thus: Primary qHTS for Identification of Small Molecule Inhibitors of Huntingtin Promoter Activity. Also: nearly all actives have a fitted effect of over 50% in size. The conditions noted are these: HEK293 HTT promoter firefly luciferase reporter (activity 0% = vehicle and -100% = no light), 24 h; series mostly up to 57.5 µM; activity change, negative = inhibition: at the top concentration. In a few lines:
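HEK293 cells carrying firefly luciferase reporters were seeded at 2,500 per well in Opti-MEM and cultured for 24 h. They were then treated with compounds at up to 57.5 uM final for 24 h at 37 degrees C before Dual-Glo luminescence readout.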
Background: qHTS replaces the single test concentration by a dilution series.
With `COc1ccc(Cl)cc1NC(=O)CSc1nc2ccccc2nc1N1CCCCC1`, the “activity change, negative = inhibition” value was inactive: -16%.
To `CC(C)(OCc1nn(Cc2ccccc2)c2ccccc12)C(=O)O` belongs inactive: 9.82%; to `COc1cc(/C=C/c2nc(C#N)c(NC(C)c3ccccc3)o2)cc(OC)c1OC` (stereo not drawn), inactive: -29.5%; to `COc1cc(NCc2ccc3nc(N)nc(N)c3c2C)cc(OC)c1OC`, “inactive”.
With `CN(Cc1ccccc1)C(=O)c1cc2c(s1)-c1ccc(Cl)cc1SC2`, the “activity change, negative = inhibition” value was inactive: 5.01%.
To `CCOc1ccc(CNC(=O)Cn2c(=O)c3cccn3c3ccc(F)cc32)cc1OC` belongs inactive: -1.55%; to `O=C(CCCCn1c(=O)c2ccccc2n(CC(=O)Nc2cccc(F)c2)c1=O)NCc1ccccc1Cl`, inactive: -2.51%; to `Cc1ccc(CNC(=O)Cn2c(=O)n(-c3ccccc3)c(=O)c3c2c2cc(C)ccc2n3C)cc1`, inactive: -12.1%.
Then `CCCCN(C)CCNC(=O)Cn1ncc2c([nH]c3ccccc32)c1=O`, with inactive: -4.88%; and `Cc1ccc(NC(=O)CCSc2nc(-c3ccc4c(c3)OCO4)cc(C(F)(F)F)n2)cc1`, with inactive: -7.58%.
For `CCOC(=O)CCN(c1ccccc1)S(=O)(=O)c1ccc2[nH]c(=O)ccc2c1`, the “activity change, negative = inhibition” value was inactive: -36.4%.
Regarding `CCc1ccc(Oc2nc3c(C)cccn3c(=O)c2/C=C(\C#N)c2nc3ccccc3s2)cc1`, the “activity change, negative = inhibition” value is inactive: -1.3%.
Then `O=C(c1ccc(Cl)cc1)n1nc(-c2ccco2)nc1NCc1cccs1`, with inactive: 5.71%; and `CCCN1CCCC[C@H]1C(=O)Nc1c(C)cccc1C`, with inactive: 6.88%.
Then `Cc1ccc(-n2ncc3c(N(CCO)Cc4ccccc4)ncnc32)cc1`, with inactive: 8.62%.
For `COc1ccc(CCCc2nnc(SCC(=O)Nc3ccccc3F)o2)cc1C`, the activity change, negative = inhibition is inactive: -12.2% [at 11.5 µM].
Then `COc1cc(C(=O)NCc2ccc(OCCN(C)C)cc2)cc(OC)c1OC`, with inactive: 6.93%; and `COc1cccc(N(Cc2nnc3n2CCCCC3)C(=O)Nc2cccc(Cl)c2)c1`, with inactive: -13.8%.
Then `CCOCCCNC(=O)CN1C(=O)c2c(c3ccccc3n2C)C1c1ccc(OC)cc1` (stereo not drawn), with inactive: -8.22%; and `O=C(Cc1csc2nc(-c3ccccc3)cn12)NCc1ccc(F)cc1`, with inactive: -26.4%; and `CCOc1ccccc1NC(=O)N1CCCn2nc(C)cc21`, with inactive: -7.94%.
Turning to `Cc1ccc(NC(=O)CCc2c(C)nn(-c3ccc(N4CCOCC4)nn3)c2C)cc1F`, the “activity change, negative = inhibition” value was inactive: 9.82%.
`CCOC(=O)c1c(S(=O)(=O)N2CCCC(C(=O)Nc3ncccc3C)C2)c(C)n(C)c1C` (stereo not drawn): the “activity change, negative = inhibition” value was inactive: -2.59%.
To `O=C(OCc1ccccc1Cl)c1ccc(-c2nnn(Cc3ccccc3Cl)n2)cc1` belongs inactive: 5.1%; to `COc1ccc(Cn2ccc3nc(C)c(C(=O)Nc4ccc(OC)cc4OC)cc3c2=O)cc1`, inactive: 2.4%; to `Cc1ccc(NC(=O)Cn2c(=O)n(CCc3ccccc3)c(=O)c3c4c(sc32)CCCC4)cc1C`, inactive: -0.892%.
To `Cc1cc(C)c(S(=O)(=O)Nc2cccc(-c3cn4ccccc4n3)c2)c(C)c1` belongs inactive: -5.72%; to `COC(=O)c1c(SCC(=O)Nc2ccccc2OC)[nH]c2ccccc2c1=O`, inactive: -11.8%; to `Cc1ccc(N2CC(NC(=O)/C=C\c3ccc4c(c3)OCO4)CC2=O)cc1` (stereo not drawn), inactive: -37.7%.
Consider `O=C(C1CC1)N1CCc2cc(Br)cc(S(=O)(=O)N3CCN(c4ccccc4F)CC3)c21`, for which the “activity change, negative = inhibition” value was inactive: -2.88%.
On to `O=C(/C=C/c1ccco1)Nc1ccc(Cl)c(-c2nc3cc(Cl)ccc3o2)c1`, for which the “activity change, negative = inhibition” value is inactive: -27.1%.
Consider `Cc1ccc(NC(=O)C2CCN(c3nn4c(=O)cc(C)nc4s3)CC2)cc1`, for which the “activity change, negative = inhibition” value is inactive: -13.1%.
Turning to `Cc1c(Cl)cccc1NC(=O)CSc1cc(-c2ccccc2)ncn1`, the “activity change, negative = inhibition” value was inactive: -3.17%.
Then `CC(C)n1c(=O)c2oc3ccccc3c2n(Cc2ccccc2F)c1=O`, with inactive: -19.7%; and `CCOC(=O)c1cccc(NC(=O)CCNS(=O)(=O)c2cccc3nonc23)c1`, with inactive: -14.4%; and `O=c1cc(CO)occ1O`, with inactive: 2.53%.
Then `CC1=C(c2ccc(Cl)cc2)S(=O)(=O)NC1=NCc1ccc(C)cc1`, with inactive: -11.9%; and `CC12CN3CC(C)(CN(C1)C3c1ccc(OCc3ccccc3)cc1)C2=O` (stereo not drawn), with inactive: -10.8%.
For `CCOC(=O)c1ccc(NC(=O)c2cc3c(n(-c4ccc(C)cc4)c2=O)CC(C)(C)CC3=O)cc1`, the “activity change, negative = inhibition” value is inactive: -11.6%.
In the case of `Cn1c(C(=O)N2CCC(C(=O)NCCc3ccc(S(N)(=O)=O)cc3)CC2)cc2sccc21`, the “activity change, negative = inhibition” value is inactive: -6.05%.
Take `COc1ccc(-c2nc3scc(CCNS(=O)(=O)c4cccc(C(C)=O)c4)n3n2)cc1`: the “activity change, negative = inhibition” value is inactive: -15.1%.
To `Cc1ccc(NC(=O)CSc2nnc(C)c(=O)[nH]2)cc1` belongs inactive: -3.36%.
Regarding `CCc1ccc(NC(=O)Cn2c(=O)ccc3cc(S(=O)(=O)N4CCCC4)ccc32)cc1`, the “activity change, negative = inhibition” value was inactive: -10.8%.
Then `CCOC(=O)c1cccc(Nc2cc(C)nc(C)n2)c1`, with inactive: -5.44%.
For `Cc1nnc2c3ccccc3nc(N3CCN(c4cccc(Cl)c4)CC3)n12`, the “activity change, negative = inhibition” value is inactive: -3.03%.
With `CCOCCCn1c(=N)c(C(=O)NC2CCCC2)cc2c(=O)n3cccc(C)c3nc21`, the “activity change, negative = inhibition” value is inactive: -4.89%.
To `Cc1noc(Cn2c(=O)c3ccccc3n(CC(=O)Nc3ccccc3C(F)(F)F)c2=O)n1` belongs inactive: -8.16%; to `Oc1ccc(Nc2nc(-c3ccc(Cl)cc3)nc3ccccc23)cc1`, inactive: -29.2%.

Values taken from PubChem BioAssay AID1508623 (National Center for Advancing Translational Sciences (NCATS), 2021).
